# Test results reported in the supplement of paper PMC8728848.
# This is one part of the list.
# B1: Dectin-1 CTLD (Mus musculus), Q6QLQ4 (protein)
# chain: MKYHSHIENLDEDGYTQLDFSTQDIHKRPRGSEKGSRAPSSPWRPIAVGLGILCFVVVVVAAVLGALAFWRHNSGRNPEEKDNFLSRNKENHKPTESSLDEKVAPSKASQTTGGFSQSCLPNWIMHGKSCYLFSFSGNSWYGSKRHCSQLGAHLLKIDNSKEFEFIESQTSSHRINAFWIGLSRNQSEGPWFWEDGSAFFPNSFQVRNTVPQESLLHNCVWIHGSEVYNQICNTSSYSICEKEL
# Assays:
# Test in all cases: glycan array binding signal (z-score within array); higher = stronger binding
# Details in all cases: glycan notation: IUPAC condensed, linker removed
# [1] = target: Gal(b1-3)[Neu5Ac(a2-6)]GalNAc
# How it was run: (§1)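 Negative Z-scores can be read as non-binding. The Z-score is calculated within each array and then averaged across arrays of one protein sequence at different concentrations or buffers and across linkers. Arrays, 3228 in all, were curated from the Consortium for Functional Glycomics database and kept only where the protein sequence was available.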
# [2] = target: Gal(b1-3)[Neu5Ac(a2-6)]GlcNAc
# How it was run: as §1
# [3] = target: Gal(b1-3)[Neu5Ac(a2-6)]GlcNAc(a1-4)Gal(b1-4)Glc
# How it was run: as §1
# [4] = target: Gal(b1-3)[Neu5Ac(b2-6)]GlcNAc
# How it was run: as §1
# [5] = target: Gal(b1-4)GalNAc(a1-3)[Fuc(a1-2)]Gal(b1-4)GlcNAc
# How it was run: as §1
# [6] = target: Gal(b1-4)GalNAc(b1-3)[Fuc(a1-2)]Gal(b1-4)GlcNAc
# How it was run: as §1
# Gal(b1-4)Glc = target: Gal(b1-4)Glc
# How it was run: as §1
# Gal(b1-4)Glc6S = target: Gal(b1-4)Glc6S
# How it was run: as §1
# Gal(b1-4)GlcNAc = target: Gal(b1-4)GlcNAc
# How it was run: as §1
# [7] = target: Gal(b1-4)GlcNAc(b1-2)Man(a1-3)[Gal(b1-4)GlcNAc(b1-2)Man(a1-6)]Man(b1-4)GlcNAc(b1-4)GlcNAc
# How it was run: as §1
# [8] = target: Gal(b1-4)GlcNAc(b1-3)Gal(b1-4)Glc
# How it was run: as §1
# [9] = target: Gal(b1-4)GlcNAc(b1-3)Gal(b1-4)GlcNAc
# How it was run: as §1
# [10] = target: Gal(b1-4)GlcNAc(b1-3)Gal(b1-4)GlcNAc(b1-3)Gal(b1-4)GlcNAc
# How it was run: as §1
# [11] = target: Gal(b1-4)GlcNAc(b1-3)Gal(b1-4)[Fuc(a1-3)]GlcNAc(b1-3)Gal(b1-4)[Fuc(a1-3)]GlcNAc
# How it was run: as §1
# [12] = target: Gal(b1-4)GlcNAc(b1-3)GalNAc
# How it was run: as §1
# [13] = target: Gal(b1-4)GlcNAc(b1-3)[Gal(b1-4)GlcNAc(b1-6)]GalNAc
# How it was run: as §1
# [14] = target: Gal(b1-4)GlcNAc(b1-6)GalNAc
# How it was run: as §1
# [15] = target: Gal(b1-4)GlcNAc(b1-6)[Gal(b1-3)]GalNAc
# How it was run: as §1
# [16] = target: Gal(b1-4)GlcNAc(b1-6)[Gal(b1-3)]GlcNAc
# How it was run: as §1
# Gal3S(b1-3)GalNAc = target: Gal3S(b1-3)GalNAc
# How it was run: as §1
# Gal3S(b1-3)GlcNAc = target: Gal3S(b1-3)GlcNAc
# How it was run: as §1
# [17] = target: Gal3S(b1-3)[Fuc(a1-4)]GlcNAc
# How it was run: as §1
# Gal3S(b1-4)Glc = target: Gal3S(b1-4)Glc
# How it was run: as §1
# Gal3S(b1-4)Glc6S = target: Gal3S(b1-4)Glc6S
# How it was run: as §1
# Gal3S(b1-4)GlcNAc = target: Gal3S(b1-4)GlcNAc
# How it was run: as §1
# Gal3S(b1-4)GlcNAc6S = target: Gal3S(b1-4)GlcNAc6S
# How it was run: as §1
# Gal3S6S(b1-4)GlcNAc = target: Gal3S6S(b1-4)GlcNAc
# How it was run: as §1
# Gal3S6S(b1-4)GlcNAc6S = target: Gal3S6S(b1-4)GlcNAc6S
# How it was run: as §1
# Gal4S(b1-4)GlcNAc = target: Gal4S(b1-4)GlcNAc
# How it was run: as §1
# Gal4S6S(b1-4)GlcNAc = target: Gal4S6S(b1-4)GlcNAc
# How it was run: as §1
# Gal6S(b1-4)Glc = target: Gal6S(b1-4)Glc
# How it was run: as §1
# Gal6S(b1-4)Glc6S = target: Gal6S(b1-4)Glc6S
# How it was run: as §1
# Gal6S(b1-4)GlcNAc = target: Gal6S(b1-4)GlcNAc
# How it was run: as §1
# GalNAc(a1-3)Gal = target: GalNAc(a1-3)Gal
# How it was run: as §1
# GalNAc(a1-3)GalNAc = target: GalNAc(a1-3)GalNAc
# How it was run: as §1
# [18] = target: GalNAc(b1-3)Gal(a1-4)Gal(b1-4)GlcNAc
# How it was run: as §1
# GalNAc(b1-4)GlcNAc = target: GalNAc(b1-4)GlcNAc
# How it was run: as §1
# Glc(a1-4)Glc = target: Glc(a1-4)Glc
# How it was run: as §1
# Glc(a1-6)Glc(a1-6)Glc = target: Glc(a1-6)Glc(a1-6)Glc
# How it was run: as §1
# Glc(b1-4)Glc = target: Glc(b1-4)Glc
# How it was run: as §1
# Glc(b1-6)Glc = target: Glc(b1-6)Glc
# How it was run: as §1
# GlcA(b1-3)Gal = target: GlcA(b1-3)Gal
# How it was run: as §1
# GlcA(b1-6)Gal = target: GlcA(b1-6)Gal
# How it was run: as §1
# [19] = target: GlcNAc(a1-3)Gal(b1-4)GlcNAc
# How it was run: as §1
# [20] = target: GlcNAc(a1-6)Gal(b1-4)GlcNAc
# How it was run: as §1
# [21] = target: GlcNAc(b1-2)Gal(b1-3)GlcNAc
# How it was run: as §1
# [22] = target: GlcNAc(b1-2)Man(a1-3)[GlcNAc(b1-2)Man(a1-6)]Man(b1-4)GlcNAc(b1-4)GlcNAc
# How it was run: as §1
# GlcNAc(b1-3)Gal = target: GlcNAc(b1-3)Gal
# How it was run: as §1
# [23] = target: GlcNAc(b1-3)Gal(b1-3)GalNAc
# How it was run: as §1
# GlcNAc(b1-3)Gal(b1-4)Glc = target: GlcNAc(b1-3)Gal(b1-4)Glc
# How it was run: as §1
# [24] = target: GlcNAc(b1-3)Gal(b1-4)GlcNAc
# How it was run: as §1
# [25] = target: GlcNAc(b1-3)Gal(b1-4)GlcNAc(b1-3)Gal(b1-4)GlcNAc
# How it was run: as §1
# GlcNAc(b1-3)GalNAc = target: GlcNAc(b1-3)GalNAc
# How it was run: as §1
# [26] = target: GlcNAc(b1-3)[GlcNAc(b1-4)][GlcNAc(b1-6)]GlcNAc
# How it was run: as §1
# [27] = target: GlcNAc(b1-3)[GlcNAc(b1-6)]Gal(b1-4)GlcNAc
# How it was run: as §1
# [28] = target: GlcNAc(b1-3)[GlcNAc(b1-6)]GlcNAc
# How it was run: as §1
# [29] = target: GlcNAc(b1-4)Gal(b1-4)GlcNAc
# How it was run: as §1
# [30] = target: GlcNAc(b1-4)GlcNAc(b1-4)GlcNAc
# How it was run: as §1
# [31] = target: GlcNAc(b1-4)GlcNAc(b1-4)GlcNAc(b1-4)GlcNAc(b1-4)GlcNAc
# How it was run: as §1
# [32] = target: GlcNAc(b1-4)GlcNAc(b1-4)GlcNAc(b1-4)GlcNAc(b1-4)GlcNAc(b1-4)GlcNAc
# How it was run: as §1
# [33] = target: GlcNAc(b1-4)[GlcNAc(b1-6)]GalNAc
# How it was run: as §1
# [34] = target: GlcNAc(b1-6)Gal(b1-4)GlcNAc
# How it was run: as §1
# GlcNAc(b1-6)GalNAc = target: GlcNAc(b1-6)GalNAc
# How it was run: as §1
# Kdn(a2-3)Gal(b1-3)GlcNAc = target: Kdn(a2-3)Gal(b1-3)GlcNAc
# How it was run: as §1
binder,measurement,setting,value
B1,glycan array binding signal (z-score),[1],-0.139
same,glycan array binding signal (z-score),[2],-0.392
same,glycan array binding signal (z-score),[3],0.033
same,glycan array binding signal (z-score),[4],-0.205
same,glycan array binding signal (z-score),[5],-0.12
same,glycan array binding signal (z-score),[6],-0.348
same,glycan array binding signal (z-score),Gal(b1-4)Glc,1.14
same,glycan array binding signal (z-score),Gal(b1-4)Glc6S,-0.129
same,glycan array binding signal (z-score),Gal(b1-4)GlcNAc,-0.159
same,glycan array binding signal (z-score),[7],-0.154
same,glycan array binding signal (z-score),[8],0.5
same,glycan array binding signal (z-score),[9],-0.38
same,glycan array binding signal (z-score),[10],-0.185
same,glycan array binding signal (z-score),[11],-0.445
same,glycan array binding signal (z-score),[12],-0.068
same,glycan array binding signal (z-score),[13],-0.217
same,glycan array binding signal (z-score),[14],-0.151
same,glycan array binding signal (z-score),[15],-0.11
same,glycan array binding signal (z-score),[16],-0.276
same,glycan array binding signal (z-score),Gal3S(b1-3)GalNAc,-0.372
same,glycan array binding signal (z-score),Gal3S(b1-3)GlcNAc,-0.491
same,glycan array binding signal (z-score),[17],-0.474
same,glycan array binding signal (z-score),Gal3S(b1-4)Glc,-0.39
same,glycan array binding signal (z-score),Gal3S(b1-4)Glc6S,0.128
same,glycan array binding signal (z-score),Gal3S(b1-4)GlcNAc,0.333
same,glycan array binding signal (z-score),Gal3S(b1-4)GlcNAc6S,-0.385
same,glycan array binding signal (z-score),Gal3S6S(b1-4)GlcNAc,-0.48
same,glycan array binding signal (z-score),Gal3S6S(b1-4)GlcNAc6S,-0.499
same,glycan array binding signal (z-score),Gal4S(b1-4)GlcNAc,-0.352
same,glycan array binding signal (z-score),Gal4S6S(b1-4)GlcNAc,-0.021
same,glycan array binding signal (z-score),Gal6S(b1-4)Glc,-0.235
same,glycan array binding signal (z-score),Gal6S(b1-4)Glc6S,-0.377
same,glycan array binding signal (z-score),Gal6S(b1-4)GlcNAc,-0.262
same,glycan array binding signal (z-score),GalNAc(a1-3)Gal,-0.457
same,glycan array binding signal (z-score),GalNAc(a1-3)GalNAc,-0.185
same,glycan array binding signal (z-score),[18],-0.464
same,glycan array binding signal (z-score),GalNAc(b1-4)GlcNAc,-0.197
same,glycan array binding signal (z-score),Glc(a1-4)Glc,0.964
same,glycan array binding signal (z-score),Glc(a1-6)Glc(a1-6)Glc,0.001
same,glycan array binding signal (z-score),Glc(b1-4)Glc,-0.278
same,glycan array binding signal (z-score),Glc(b1-6)Glc,0.549
same,glycan array binding signal (z-score),GlcA(b1-3)Gal,4.11
same,glycan array binding signal (z-score),GlcA(b1-6)Gal,-0.263
same,glycan array binding signal (z-score),[19],-0.269
same,glycan array binding signal (z-score),[20],-0.24
same,glycan array binding signal (z-score),[21],-0.218
same,glycan array binding signal (z-score),[22],-0.34
same,glycan array binding signal (z-score),GlcNAc(b1-3)Gal,-0.245
same,glycan array binding signal (z-score),[23],-0.405
same,glycan array binding signal (z-score),GlcNAc(b1-3)Gal(b1-4)Glc,-0.03
same,glycan array binding signal (z-score),[24],0.088
same,glycan array binding signal (z-score),[25],-0.18
same,glycan array binding signal (z-score),GlcNAc(b1-3)GalNAc,0.059
same,glycan array binding signal (z-score),[26],-0.628
same,glycan array binding signal (z-score),[27],0.193
same,glycan array binding signal (z-score),[28],-0.044
same,glycan array binding signal (z-score),[29],-0.306
same,glycan array binding signal (z-score),[30],-0.25
same,glycan array binding signal (z-score),[31],0.938
same,glycan array binding signal (z-score),[32],-0.182
same,glycan array binding signal (z-score),[33],9.99
same,glycan array binding signal (z-score),[34],-0.167
same,glycan array binding signal (z-score),GlcNAc(b1-6)GalNAc,-0.274
same,glycan array binding signal (z-score),Kdn(a2-3)Gal(b1-3)GlcNAc,-0.044
